Laboratory results reported in patent US20170368169A1 (MARENGO THERAPEUTICS, published 2017).

Key:
[1] = target: T1, human FAP (generated from SEQ ID NO: 225) (human, UniProt Q12884 26-760, limits assumed); assay: ELISA on plate-bound antigen, molecule titrated 1 uM-1 pM
T1 construct: Antigen construct made in house; also called hFAP

[2] = target: T2, human PD1L1 (generated from SEQ ID NO: 178) (human); assay: as above
T2 construct: Antigen construct made in house; also called hPD1L1; human PDL1

T1 sequence (Q12884 other isoform, or with tags, fused parts or gaps limits assumed): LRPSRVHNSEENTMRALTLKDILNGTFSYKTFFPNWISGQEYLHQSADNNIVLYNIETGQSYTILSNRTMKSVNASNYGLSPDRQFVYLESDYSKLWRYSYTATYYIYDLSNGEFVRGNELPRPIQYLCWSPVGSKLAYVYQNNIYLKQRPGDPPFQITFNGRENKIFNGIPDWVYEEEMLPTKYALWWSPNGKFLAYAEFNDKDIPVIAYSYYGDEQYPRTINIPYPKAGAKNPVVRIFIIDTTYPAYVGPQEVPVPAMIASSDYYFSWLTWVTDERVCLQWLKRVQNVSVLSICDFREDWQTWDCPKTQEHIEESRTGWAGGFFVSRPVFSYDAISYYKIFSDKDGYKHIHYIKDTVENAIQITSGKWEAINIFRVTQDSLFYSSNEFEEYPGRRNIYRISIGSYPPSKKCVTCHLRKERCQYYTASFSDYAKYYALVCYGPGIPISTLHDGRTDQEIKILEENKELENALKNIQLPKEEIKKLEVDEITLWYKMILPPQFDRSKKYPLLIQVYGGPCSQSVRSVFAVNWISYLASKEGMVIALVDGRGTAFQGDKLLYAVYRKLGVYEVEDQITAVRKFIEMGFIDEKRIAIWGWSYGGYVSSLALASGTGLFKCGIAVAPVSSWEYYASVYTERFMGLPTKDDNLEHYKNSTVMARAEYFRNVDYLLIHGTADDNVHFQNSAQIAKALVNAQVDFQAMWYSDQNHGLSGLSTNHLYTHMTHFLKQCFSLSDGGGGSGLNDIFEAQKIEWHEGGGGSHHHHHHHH

EC50 [1] [nM]	EC50 [2] [nM]	Binder
144	–	Multispecific molecule 24 (other, Two Fab arms to FAP and a hyaluronidase arm) heavy 1: QVQLVQSGAEVKKPGASVKVSCKTSRYTFTEYTIHWVRQAPGQRLEWIGGINPNNGIPNYNQKFKGRVTITVDTSASTAYMELSSLRSEDTAVYYCARRRIAYGYDEGHAMDYWGQGTLVTVSSASTKGPSVFPLAPSSKSTSGGTAALGCLVKDYFPEPVTVSWNSGALTSGVHTFPAVLQSSGLYSLSSVVTVPSSSLGTQTYICNVNHKPSNTKVDKRV[human IgG1 Fc with changes skipped] light: DIVMTQSPDSLAVSLGERATINCKSSQSLLYSRNQKNYLAWYQQKPGQPPKLLIFWASTRESGVPDRFSGSGFGTDFTLTISSLQAEDVAVYYCQQYFSYPLTFGQGTKVEIKRTVAAPSVFIFPPSDEQLKSGTASVVCLLNNFYPREAKVQWKVDNALQSGNSQESVTEQDSKDSTYSLSSTLTLSKADYEKHKVYACEVTHQGLSSPVTKSFNRGEC heavy 2: QVQLVQSGAEVKKPGASVKVSCKTSRYTFTEYTIHWVRQAPGQRLEWIGGINPNNGIPNYNQKFKGRVTITVDTSASTAYMELSSLRSEDTAVYYCARRRIAYGYDEGHAMDYWGQGTLVTVSSASTKGPSVFPLAPSSKSTSGGTAALGCLVKDYFPEPVTVSWNSGALTSGVHTFPAVLQSSGLYSLSSVVTVPSSSLGTQTYICNVNHKPSNTKVDKRVEPKSCDKTHTCPPCPAPELLGGPSVFLFPPKPKDTLMISRTPEVTCVVVDVSHEDPEVKFNWYVDGVEVHNAKTKPREEQYNSTYRVVSVLTVLHQDWLNGKEYKCKVSNKALPAPIEKTISKAKGQPREPQVCTLPPSREEMTKNQVSLSCAVKGFYPSDIAVEWESNGQPENNYKTTPPVLDSDGSFFLVSKLTVDKSRWQQGNVFSCSVMHEALHNHYTQKSLSLSPGKGGGGSGGGGSGGGGSFRGPLLPNRPFTTVWNANTQWCLERHGVDVDVSVFDVVANPGQTFRGPDMTIFYSSQLGTYPYYTPTGEPVFGGLPQNASLIAHLARTFQDILAAIPAPDFSGLAVIDWEAWRPRWAFNWDTKDIYRQRSRALVQAQHPDWPAPQVEAVAQDQFQGAARAWMAGTLQLGRALRPRGLWGFYGFPDCYNYDFLSPNYTGQCPSGIRAQNDQLGWLWGQSRALYPSIYMPAVLEGTGKSQMYVQHRVAEAFRVAVAAGDPNLPVLPYVQIFYDTTNHFLPLDELEHSLGESAAQGAAGVVLWVSWENTRTKESCQAIKEYMDTTLGPFILNVTSGALLCSQALCSGHGRCVRRTSHPKALLLLNPASFSIQLTPGGGPLSLRGALSLEDQAQMAVEFKCRCYPGWQAPWCERKSMW
18.5	–	Multispecific molecule 26 (other, One FAP targeting arm and a hyaluronidase arm) heavy: QVQLVQSGAEVKKPGASVKVSCKTSRYTFTEYTIHWVRQAPGQRLEWIGGINPNNGIPNYNQKFKGRVTITVDTSASTAYMELSSLRSEDTAVYYCARRRIAYGYDEGHAMDYWGQGTLVTVSSASTKGPSVFPLAPSSKSTSGGTAALGCLVKDYFPEPVTVSWNSGALTSGVHTFPAVLQSSGLYSLSSVVTVPSSSLGTQTYICNVNHKPSNTKVDKRV[human IgG1 Fc with changes skipped] light: DIVMTQSPDSLAVSLGERATINCKSSQSLLYSRNQKNYLAWYQQKPGQPPKLLIFWASTRESGVPDRFSGSGFGTDFTLTISSLQAEDVAVYYCQQYFSYPLTFGQGTKVEIKRTVAAPSVFIFPPSDEQLKSGTASVVCLLNNFYPREAKVQWKVDNALQSGNSQESVTEQDSKDSTYSLSSTLTLSKADYEKHKVYACEVTHQGLSSPVTKSFNRGEC FRGPLLPNRPFTTVWNANTQWCLERHGVDVDVSVFDVVANPGQTFRGPDMTIFYSSQLGTYPYYTPTGEPVFGGLPQNASLIAHLARTFQDILAAIPAPDFSGLAVIDWEAWRPRWAFNWDTKDIYRQRSRALVQAQHPDWPAPQVEAVAQDQFQGAARAWMAGTLQLGRALRPRGLWGFYGFPDCYNYDFLSPNYTGQCPSGIRAQNDQLGWLWGQSRALYPSIYMPAVLEGTGKSQMYVQHRVAEAFRVAVAAGDPNLPVLPYVQIFYDTTNHFLPLDELEHSLGESAAQGAAGVVLWVSWENTRTKESCQAIKEYMDTTLGPFILNVTSGALLCSQALCSGHGRCVRRTSHPKALLLLNPASFSIQLTPGGGPLSLRGALSLEDQAQMAVEFKCRCYPGWQAPWCERKSMWGGGGSGGGGSGGGGSDKTHTCPPCPAPELLGGPSVFLFPPKPKDTLMISRTPEVTCVVVDVSHEDPEVKFNWYVDGVEVHNAKTKPREEQYNSTYRVVSVLTVLHQDWLNGKEYKCKVSNKALPAPIEKTISKAKGQPREPQVCTLPPSREEMTKNQVSLSCAVKGFYPSDIAVEWESNGQPENNYKTTPPVLDSDGSFFLVSKLTVDKSRWQQGNVFSCSVMHEALHNHYTQKSLSLSPGK
44	0.052	Multispecific molecule 27 (other, PDL1 arm, FAP arm, hyaluronidase arm) heavy 1: EVQLLESGGGLVQPGGSLRLSCAASGFTFSSYIMMWVRQAPGKGLEWVSSIYPSGGITFYADTVKGRFTISRDNSKNTLYLQMNSLRAEDTAVYYCARIKLGTVTTVDYWGQGTLVTVSSASTKGPSVFPLAPSSKSTSGGTAALGCLVKDYFPEPVTVSWNSGALTSGVHTFPAVLQSSGLYSLSSVVTVPSSSLGTQTYICNVNHKPSNTKVDKRV[human IgG1 Fc with changes skipped] light 1: QSALTQPASVSGSPGQSITISCTGTSSDVGGYNYVSWYQQHPGKAPKLMIYDVSNRPSGVSNRFSGSKSGNTASLTISGLQAEDEADYYCSSYTSSSTRVFGTGTKVTVLGQPKANPTVTLFPPSSEELQANKATLVCLISDFYPGAVTVAWKADGSPVKAGVETTKPSKQSNNKYAASSYLSLTPEQWKSHRSYSCQVTHEGSTVEKTVAPTECS heavy 2: QVQLVQSGAEVKKPGASVKVSCKTSRYTFTEYTIHWVRQAPGQRLEWIGGINPNNGIPNYNQKFKGRVTITVDTSASTAYMELSSLRSEDTAVYYCARRRIAYGYDEGHAMDYWGQGTLVTVSSASTKGPSVFPLAPSSKSTSGGTAALGCLVKDYFPEPVTVSWNSGALTSGVHTFPAVLQSSGLYSLSSVVTVPSSSLGTQTYICNVNHKPSNTKVDKRVEPKSCDKTHTCPPCPAPELLGGPSVFLFPPKPKDTLMISRTPEVTCVVVDVSHEDPEVKFNWYVDGVEVHNAKTKPREEQYNSTYRVVSVLTVLHQDWLNGKEYKCKVSNKALPAPIEKTISKAKGQPREPQVCTLPPSREEMTKNQVSLSCAVKGFYPSDIAVEWESNGQPENNYKTTPPVLDSDGSFFLVSKLTVDKSRWQQGNVFSCSVMHEALHNHYTQKSLSLSPGKGGGGSGGGGSGGGGSFRGPLLPNRPFTTVWNANTQWCLERHGVDVDVSVFDVVANPGQTFRGPDMTIFYSSQLGTYPYYTPTGEPVFGGLPQNASLIAHLARTFQDILAAIPAPDFSGLAVIDWEAWRPRWAFNWDTKDIYRQRSRALVQAQHPDWPAPQVEAVAQDQFQGAARAWMAGTLQLGRALRPRGLWGFYGFPDCYNYDFLSPNYTGQCPSGIRAQNDQLGWLWGQSRALYPSIYMPAVLEGTGKSQMYVQHRVAEAFRVAVAAGDPNLPVLPYVQIFYDTTNHFLPLDELEHSLGESAAQGAAGVVLWVSWENTRTKESCQAIKEYMDTTLGPFILNVTSGALLCSQALCSGHGRCVRRTSHPKALLLLNPASFSIQLTPGGGPLSLRGALSLEDQAQMAVEFKCRCYPGWQAPWCERKSMW light 2: DIVMTQSPDSLAVSLGERATINCKSSQSLLYSRNQKNYLAWYQQKPGQPPKLLIFWASTRESGVPDRFSGSGFGTDFTLTISSLQAEDVAVYYCQQYFSYPLTFGQGTKVEIKRTVAAPSVFIFPPSDEQLKSGTASVVCLLNNFYPREAKVQWKVDNALQSGNSQESVTEQDSKDSTYSLSSTLTLSKADYEKHKVYACEVTHQGLSSPVTKSFNRGEC
